Reference: article PMC4336329 (PLoS ONE, 2015)
Among all 310,000 compounds or so, about 14,000 (4.5%) showed an effect of 50% or more. Effects have a minus sign here. The list shows a part of the results.

Target: human ether-à-go-go-related gene (hERG) potassium channel (human, UniProt Q12809)
Assay: primary screen, population patch clamp on CHO cells stably expressing hERG
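Also: peak tail current of the secondary pulse compared with the same well before compound.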

Sequence of human ether-à-go-go-related gene (hERG) potassium channel (Q12809 whole entry, looked up): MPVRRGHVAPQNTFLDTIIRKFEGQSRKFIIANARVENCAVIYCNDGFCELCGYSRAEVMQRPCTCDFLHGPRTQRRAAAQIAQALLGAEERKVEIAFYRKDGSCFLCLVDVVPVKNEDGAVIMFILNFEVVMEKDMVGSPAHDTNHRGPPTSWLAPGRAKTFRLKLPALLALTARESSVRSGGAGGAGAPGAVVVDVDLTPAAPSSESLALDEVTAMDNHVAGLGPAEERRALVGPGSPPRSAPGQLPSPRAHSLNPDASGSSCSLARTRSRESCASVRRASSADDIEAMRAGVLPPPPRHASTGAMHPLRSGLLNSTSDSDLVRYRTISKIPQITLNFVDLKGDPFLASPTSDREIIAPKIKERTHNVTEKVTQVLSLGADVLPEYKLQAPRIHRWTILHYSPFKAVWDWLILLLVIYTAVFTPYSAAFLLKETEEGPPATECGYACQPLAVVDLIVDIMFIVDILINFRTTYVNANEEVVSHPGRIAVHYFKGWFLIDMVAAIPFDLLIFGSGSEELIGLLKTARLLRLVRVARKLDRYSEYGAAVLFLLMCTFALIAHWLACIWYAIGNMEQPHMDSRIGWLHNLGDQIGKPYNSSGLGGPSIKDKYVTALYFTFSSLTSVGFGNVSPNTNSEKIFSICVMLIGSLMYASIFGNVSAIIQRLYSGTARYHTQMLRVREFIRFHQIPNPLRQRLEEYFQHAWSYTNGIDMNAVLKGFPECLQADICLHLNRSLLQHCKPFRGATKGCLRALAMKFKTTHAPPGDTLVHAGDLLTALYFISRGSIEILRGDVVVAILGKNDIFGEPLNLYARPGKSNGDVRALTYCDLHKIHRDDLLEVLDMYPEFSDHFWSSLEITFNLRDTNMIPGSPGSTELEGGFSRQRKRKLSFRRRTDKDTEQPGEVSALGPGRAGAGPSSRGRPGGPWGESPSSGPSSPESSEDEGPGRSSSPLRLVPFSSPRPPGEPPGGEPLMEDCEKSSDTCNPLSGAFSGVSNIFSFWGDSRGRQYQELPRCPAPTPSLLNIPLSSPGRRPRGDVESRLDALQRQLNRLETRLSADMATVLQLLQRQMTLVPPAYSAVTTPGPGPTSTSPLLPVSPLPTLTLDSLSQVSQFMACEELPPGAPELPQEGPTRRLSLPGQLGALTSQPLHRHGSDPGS

Row | SMILES | hERG current change (%, negative = inhibition) at 10uM
1 | CCOC(=O)c1sc2nc(C)nc(SCC(=O)N(C)C3CCS(=O)(=O)C3)c2c1C (centres unmarked) | -26.1%
2 | COc1cc(C(CC(=O)N2CCOCC2)c2c(OC)cc(OC)c3ccc(=O)oc23)cc(OC)c1OC (centres unmarked) | 2.51%
3 | CC(=O)Oc1ccc(OC(C)=O)c(S(=O)(=O)c2ccc(C)c(C)c2)c1 | 10.9%
4 | CSc1nn2c(C(F)(F)F)cc(C(F)(F)F)nc2c1C(N)=O | 7.24%
5 | CCc1c(C)sc(NC(=O)CCc2ccc(OC)cc2)c1C(N)=O | 20.8%
6 | CCCc1cc2c(cc1NS(=O)(=O)c1ccc(CCNC(C)=O)cc1)OCO2 | -63%
7 | CCc1ccc(OCC(O)CN2CCN(c3ccc(OC)cc3)CC2)cc1.Cl (centres unmarked) | -49.3%
8 | COc1ccc(Nc2nccc(-c3cccc(N)c3)n2)cc1 | 3.8%
9 | COc1ccccc1CNS(=O)(=O)c1ccc2c(c1)NC(=O)CS2 | -1.59%
10 | Cc1sc2ncnc(N(C)Cc3cccs3)c2c1C | -53%
11 | O=C(Nc1ccc2nccnc2c1)c1ccco1 | 11.3%
12 | Cc1cc(C)c2c(CC(=O)O)c(C)[nH]c2c1 | 13.1%
13 | C/C(CC(=O)Nc1cc(Cl)ccc1Cl)=N\NC(=O)c1ccco1 | -6.6%
14 | CCOC(=O)c1c(C)[nH]c(C(=O)COC(=O)c2ccc(O)cc2O)c1C.CN(C)C=O | 18.3%
15 | COC(=O)CSc1nccc(-c2ccc(F)cc2)c1C#N | 9.95%
16 | Cc1ccc(S(=O)(=O)N(C)c2c(C)ccc(S(=O)(=O)N3CCN(C=O)CC3)c2C)cc1 | -42.8%
17 | COC(=O)c1cc(S(=O)(=O)NCCCN2CCCC2=O)cn1C | 10.7%
18 | COc1ccc(CC(=O)Nc2nc(-c3ccc(F)c(F)c3)cs2)cc1OC | -8.09%
19 | Cc1cc(C(=O)OCC(=O)N2CC(=O)Nc3ccccc32)c(C)n1-c1ccc(F)cc1 | -15.4%
20 | Cc1onc(C(=O)Nc2cccnc2Cl)c1[N+](=O)[O-] | 17%
21 | O=C(c1cc2ccccc2oc1=O)N(c1ccc(Cl)cc1)C1C=CS(=O)(=O)C1 (centres unmarked) | -6.18%
22 | CCCCc1cn(C[C@H]2CC[C@@H]([C@@H]3CC[C@H](Cn4cc(CCCC)nn4)O3)O2)nn1 | -54.9%

Row | SMILES | hERG current change (%, negative = inhibition) at 10uM
23 | Cc1cc(NC(=O)c2ccc([N+](=O)[O-])cc2Cl)no1 | 9.18%
24 | CCCCN(CCCC)CC(O)COc1ccccc1C(=O)Nc1ccccc1 (centres unmarked) | -98.7%
25 | CC1=NN(C(N)=S)C(=O)C1N=Nc1ccc(Br)cc1 (centres unmarked) | 16.6%
26 | CC1=Nc2cc([N+](=O)[O-])ccc2NC(C)(C)C1 | -24%
27 | CN(C)/C(CN1CCCCC1)=C1\N=C(c2ccccc2)OC1=O | -36%
28 | COc1ccc(-c2nnc(SCC(=O)Nc3cc(C)on3)n2N)cc1OC | 20.2%
29 | CN(C)/C=C(\C#N)S(=O)(=O)C(C)(C)C | 12.8%
30 | CCN(CC)CCN1C(=O)c2oc3ccccc3c(=O)c2C1c1cccc(Br)c1 (centres unmarked) | -44.2%
31 | O=C(O)C1Sc2[nH]c(=O)sc2C2c3cc(Br)ccc3OC(=O)C12 (centres unmarked) | 16.7%
32 | COc1ccc(NC(=O)CN(c2cccc(F)c2)S(C)(=O)=O)cc1OC | 6.14%
33 | COc1cc(NC(=O)C2CCN(S(=O)(=O)c3ccc4[nH]c(=O)oc4c3)CC2)cc(OC)c1 | 15.2%
34 | CCOc1ncccc1C(=O)Nc1ncc(C)s1 | 18.6%
35 | O=P(Oc1ccccc1)(Oc1ccccc1)C(O)c1ccccc1 (centres unmarked) | 1.19%
36 | CCCCCCCN1C/C=C\C(c2ccc(OC)cc2)N(Cc2ccc(F)cc2)C(=O)[C@H]1Cc1ccccc1 (some centres unmarked) | 8.55%
37 | COCCNC(=O)COC(=O)c1ccc(OCC(=O)Nc2ccccc2OC)c(OC)c1 | 7.77%
38 | O=C(CN1C(=O)/C(=C/c2ccccc2)SC1=S)NC1C=CS(=O)(=O)C1 (centres unmarked) | 16.5%
39 | CCOC(=O)c1c(C)nc2sc(C(=O)Nc3ccc(OC)cc3)c(N)c2c1-c1ccc(OC)cc1 | 4.12%
40 | CCCN(CCO)Cc1cccc(Br)c1 | -0.752%
41 | CC(=O)Nc1ccc(NC(=O)c2nc(S(=O)(=O)Cc3ccccc3)ncc2Cl)cc1 | 15.4%
42 | CCOC(=O)c1oc2cccc(OCC(O)CNC(C)C)c2c1C.Cl (centres unmarked) | -19.2%
43 | CSc1nc(C)cc(SCCO)n1 | 1.95%
44 | NS(=O)(=O)c1ccc(CCNC(=O)C2CCN(S(=O)(=O)c3cccc4cccnc34)CC2)cc1 | -2.52%

Row | SMILES | hERG current change (%, negative = inhibition) at 10uM
45 | COc1ccc(NC(=O)c2cc(SC)ccc2Cl)cc1 | 12%
46 | Cc1ccc(S(=O)(=O)N(CC(=O)N2CCOCC2)C2CCCCC2)cc1 | -23.3%
47 | CNC(=O)c1cc(C(=O)c2ccc(F)cc2C(F)(F)F)c[nH]1 | 9.93%
48 | Cc1cccc(NC(=O)NC(C)C(c2cccs2)N2CCOCC2)c1 (centres unmarked) | 20.5%
49 | O=S(=O)(N/N=C/c1ccccc1F)c1ccccc1 | 3.82%
50 | Cn1c(COc2ccccc2)nnc1SCC(=O)NNC(=O)C1CCCCC1 | 8.06%
51 | COc1ccc(N2CCN(CCCNC(=O)CN3CCN(Cc4ccccc4C)C3=O)CC2)cc1 | -46.5%
52 | Cc1ccc(OCC(=O)NN=C2C3CC4CC(C3)CC2C4)cc1 | -2.32%
53 | NS(=O)(=O)c1ccc(CCNC(=O)COC(=O)CCN2C(=O)C3CC=CCC3C2=O)cc1 (centres unmarked) | 0.797%
54 | O=C(Nc1cccc(-c2cn3cccnc3n2)c1)c1cccs1 | -20.7%
55 | COc1ccc(C2CC(c3ccccc3OC(C)=O)=NN2C(=O)/C=C/c2ccccc2)cc1OC (centres unmarked) | -22.1%
56 | O=C(NC1CCCCC1)C(c1ccccn1)N(C(=O)Cc1cccs1)c1ccc(Cl)cc1 (centres unmarked) | -20.3%
57 | Cn1cc(/C=C/C(=O)c2ccccc2)c2ccccc21 | 22.7%
58 | COC(=O)[C@@H]1CC[C@@](C)(c2ccc(OC)cc2)C1(C)C | 1.76%
59 | CC(C)N(Cc1ccccc1)C(=O)COC(=O)/C=C/c1cnc2ccccc2n1 | 3.93%
60 | Cc1cc2ccccn2c1C(=O)c1ccc(NN)c([N+](=O)[O-])c1 | -6.4%
61 | O=S(=O)(c1ccc(-c2ccccc2)cc1)N1CCCC1 | 10.2%
62 | Cn1ccsc1=NC(=O)c1ccc(Cl)c([N+](=O)[O-])c1 | 12.4%
63 | O=C(NC1CCCCC1)N(Cc1ccc(F)cc1)Cc1nc2ccccc2c(=O)[nH]1 | 0.0493%
64 | Cc1nnc(SCc2cc(=O)[nH]c(=S)[nH]2)s1 | 24.8%
65 | Cc1cccc(C)c1NC(=O)CN(C)C(=O)c1cccc(S(=O)(=O)N2CCN(c3ccc(F)cc3)CC2)c1 | -16.8%
66 | COc1ccc(-c2csc(NC(=O)c3cccs3)c2C(=O)O)cc1OC | 4.47%

Row | SMILES | hERG current change (%, negative = inhibition) at 10uM
67 | O=C(NCc1ccccc1F)C1CCCN(C(=O)Nc2ccccc2)C1 (centres unmarked) | 3.18%
68 | Cc1cc(S(=O)(=O)N2CCOCC2)ccc1OCC(=O)NCC1CCCO1 (centres unmarked) | -0.633%
69 | C/C(CC(=O)Nc1ccc2c(c1)OCCO2)=N\NC(=O)c1ccccc1F | 22.4%
70 | CCc1ccc(NC(=O)C(C)OC(=O)C2CCN(c3ccc(C(F)(F)F)cn3)CC2)cc1 (centres unmarked) | -16.3%
71 | CCNC(=S)N1CCn2cccc2C1c1ccc(F)cc1 (centres unmarked) | -26.8%
72 | CCN(CC)C(=O)c1sc(NC(=S)N2CCN(C(=O)C3CCCO3)CC2)c(C(=O)OC)c1C (centres unmarked) | -4.64%
73 | CCc1ccc(-c2cc(C)no2)cc1S(=O)(=O)N1CCOc2ccc(C)cc21 | 13.1%
74 | CCCCCc1cc(=O)oc2c(C(CCN(CC)CC)c3ccc(N(C)C)cc3)c(OC)cc(OC)c12 (centres unmarked) | -33.6%
75 | CCN1CCN(CCNC(=O)c2ccc3c(c2)N(Cc2cccc(Cl)c2)C(=O)c2ccccc2S3=O)CC1 (centres unmarked) | -40.2%
76 | O=C(OCC(=O)N1CCOCC1)c1ccc2[nH]c3c(c2c1)CCCC3 | 6.19%
77 | COc1ccc(OCC(=O)NCCc2c[nH]c3ccccc23)cc1.O=C(O)C(=O)O | -15.9%
78 | O=C(NCc1ccco1)c1ccc(COc2ccccc2[N+](=O)[O-])o1 | -21.6%
79 | COc1ccc(-c2nn(-c3ccccc3)cc2C(=O)N/N=C/c2ccc([N+](=O)[O-])o2)cc1 | -38.2%
80 | CCSc1nnc2n1C(C)(C)Cc1ccccc1-2 | 0.0135%
81 | CC1(C)CC2CC(C)(CN2C(=S)Nc2ccccc2)C1 (centres unmarked) | 2.9%
82 | CCN(CC(=O)Nc1ccccc1OC)CC(=O)Nc1ccccc1-c1ccccc1 | -5.14%
83 | COc1ccc(NC2CCCN(C(=O)c3oc(C)cc3C)C2)cc1OC (centres unmarked) | 16.2%
84 | CC(=O)Nc1nc(-c2ccc3c(c2)CCN3C(=O)C2CC2)c(C)s1 | -1.04%
85 | CCc1nccn1CCC(=O)N1CCCC(Nc2ccc(F)cc2)C1 (centres unmarked) | -15.8%
86 | CCC1CCCCN1C(=O)c1nn2cccnc2c1Cl (centres unmarked) | -1.22%
